Laboratory results reported in PubChem BioAssay AID686978 (National Center for Advancing Translational Sciences (NCATS), 2013).
“And” between values parts separate entries of the source, which are not always exact repeats. Equal entries are not always repeated. The campaign covered roughly 420,000 compounds. About 64,000 (15%) were called active. The shares of active, inactive and inconclusive entries below differ from those in the screen. Calls follow the shape of the dose curve; as a rule, active = well fitted inhibition curve with a large enough effect; inconclusive = small, poorly fitted or top-dose-only effect; inactive = flat fitted curve, though single readings scatter. Potencies beside an inconclusive call are fits to weak or partial responses and may not hold up.

Test: qHTS for Inhibitors of human tyrosyl-DNA phosphodiesterase 1 (TDP1): qHTS in cells in absence of CPT; also: nearly all actives have a fitted effect of over 55% in size
Conditions: DT40 Tdp1-/- hTDP1 cells, no CPT, ATP luminescence, 48 h; activity change, negative = growth inhibition: at 46.2 µM (top of the series) unless noted
Summary of the method: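 A cellular qHTS used chicken DT40 cells lacking endogenous Tdp1 but carrying stably transfected human TDP1. Compounds were applied without camptothecin, and cell growth kinetics were judged by ATP-dependent luminescence after ≥48 hr.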
% is scaled to controls: 0 for no effect and ±100 for the full control effect; potency is read from the fitted curve at half-maximal effect; tags tell the direction and shape of the fitted curve.

| SMILES | Potency | activity change, negative = growth inhibition |
| --- | --- | --- |
| COc1cc2c(cc1OC)C(C(=O)Nc1ccccc1N1CCN(C)CC1)C1c3ccccc3CCN1C2=O (stereo not given) | inactive | – |
| Cc1c(C)c2c(OCC(=O)NCC(O)c3ccccc3)cc3c(c2oc1=O)CCC(C)(C)O3 (stereo not given) | inconclusive: 20.6 µM [inhibitor, partial curve] | – |
| CC1=C(C(=O)Nc2ccc(Cl)cc2)C(C(C)C)n2nc(SCc3cccc(C)c3)nc2N1 (stereo not given) | inconclusive: 32.6 µM [inhibitor, single point] | – |
| CC(C)n1c(N2CCN(CC(=O)Nc3ccc4c(c3)OCCO4)CC2)nc2ccccc21 | inconclusive: 29.1 µM [inhibitor, single point] | – |
| COC(=O)c1sccc1NC(=O)CN1CCN(c2ccc(F)cc2)CC1 | inconclusive: 29.1 µM [inhibitor, single point] | – |
| Cc1cc(O)c(C=Nc2ccc(N3CCOCC3)cc2)c(C)c1Cl | inconclusive: 29.1 µM [inhibitor, single point] | – |
| COc1ccccc1Nc1ncnc2sccc12 | inactive | – |
| NC(=S)N/N=C/c1ccccc1OC(=O)c1cc2ccccc2oc1=O | active: 6.51 µM | – |
| Cc1ccc(NC(=O)c2ccc(Cl)c(NC(=O)c3cccs3)c2)cc1 | inconclusive: 29.1 µM [inhibitor, single point] | – |
| Cc1ccc(/C=C2\OC(=O)c3ccccc32)cc1 | inactive | – |
| Cn1c(=O)c2c([nH]c(=O)n2C)n(Cc2ccccc2)c1=O | inactive | – |
| O=C(C1CCN(S(=O)(=O)c2ccccc2[N+](=O)[O-])CC1)N1CCOCC1 | inactive | – |
| Cc1c(N=C/C=C2/N(C)c3ccccc3C2(C)C)c(=O)n(-c2ccccc2)n1C | inactive and inconclusive: 18.4 µM [inhibitor, single point] | – |
| CCOCCn1ccc2c(OCC(=O)NCCc3ccc(OC)c(OC)c3)cccc2c1=O | inactive | – |
| CNc1ccccc1C(=O)OCC(=O)c1ccccc1 | inactive | – |
| O=C(NCCN1CCOCC1)c1ccc2c(c1)N(Cc1ccccc1F)C(=O)c1ccccc1S2 | inactive | – |
| COc1ccc(Cc2nc3ccccc3n2C)cc1 | inconclusive: 29.1 µM [inhibitor, single point] | – |
| CCOC(=O)c1c(C)[nH]c(N=Nc2ccccc2)c1C | active: 23.1 µM | – |
| C=CC[C@H](CC(=O)NCCO)C(=O)N[C@H](COC(=O)[C@@H](CC=C)Cc1ccc(F)cc1)Cc1ccccc1 | inconclusive: 29.1 µM [inhibitor, single point] | – |
| CC(=O)c1nnn(-c2nc(C#N)nc(N3CCOCC3)n2)c1C | inconclusive: 12.6 µM [inhibitor, single point] | – |
| COc1cccc(-n2ccnc2SCC(=O)Nc2cccc(C)c2C)c1 | active: 16.4 µM | – |
| COn1c(SC2CCCCC2)nc2ccccc2c1=O | inactive | – |
| CC1CC(C)CN(S(=O)(=O)c2ccc(Oc3ccc([N+](=O)[O-])cc3)cc2)C1 (stereo not given) | inconclusive: 20.6 µM [inhibitor, single point] | – |
| O=C(C1COc2ccccc2O1)N1CCN(c2ccc([N+](=O)[O-])cc2)CC1 (stereo not given) | active: 20.6 µM | – |
| CC(C)CN(CC(C)C)S(=O)(=O)N1CCC(C(=O)NCc2cccnc2)CC1 | inconclusive: 23.1 µM [inhibitor, single point] | – |

| SMILES | Potency | activity change, negative = growth inhibition |
| --- | --- | --- |
| COc1ccc(Nc2cc(=O)oc3ccccc23)cc1 | active: 4.11 µM | – |
| COc1ccc(C2c3[nH]c4ccccc4c3C[C@H]3C(=O)N(CC(C)C)CC(=O)N23)c(OC)c1 (stereo not given in full) | inconclusive: 25.9 µM [inhibitor, single point] | – |
| O=C(CN1C(=O)/C(=C/c2ccccc2F)Oc2ccccc21)N1CCN(c2ccccn2)CC1 | – | inconclusive: -31.6% [inhibitor] |
| O=S(=O)(c1ccccc1)N1CCC2(CCCN(c3ncccn3)C2)CC1 | inconclusive: 23.1 µM [inhibitor, single point] | – |
| CCc1cc(CNC(=O)c2cc(COc3ccc(C)nc3)on2)on1 | inconclusive: 29.1 µM [inhibitor, single point] | – |
| Cc1cc(NC(=O)c2noc3c2CCCC3)no1 | inactive | – |
| COC(=O)c1c(NC(=O)COC(=O)CNC(=O)c2ccco2)sc(C)c1C | inactive | – |
| COc1cc2c(cc1OC)C(C)=NC1(CCCCC1)C2 | inactive | – |
| Cc1ccc2[nH]c3nc(N/N=C/c4cccc(O)c4)nnc3c2c1 | inactive | – |
| Cc1sc2nc(CN(CCc3ccccc3)C(=O)c3ccco3)[nH]c(=O)c2c1C | inactive | – |
| O=C(COc1ncnc2ccccc12)c1ccc(Cl)cc1 | inconclusive: 0.517 µM [inhibitor, full curve, poor fit] | – |
| CSc1ccc(C2CC(=O)Nc3c2c(=O)n(C)c(=O)n3C)cc1 (stereo not given) | inconclusive: 20.6 µM [inhibitor, single point] | – |
| N=C1/C(=C/c2cccn2-c2ccc([N+](=O)[O-])cc2)C(=O)N=C2SC=CN12 | inconclusive: 13 µM [inhibitor, partial curve, poor fit] | – |
| Cc1ccc(NC(=O)c2cnccn2)cc1S(=O)(=O)N(C)C | inactive | – |
| CC(C)(C)c1ccc(OCC(=O)NCC(c2cccs2)N2CCOCC2)cc1 (stereo not given) | inconclusive: 29.1 µM [inhibitor, single point] | – |
| O=C(COC(=O)c1cccc(NS(=O)(=O)/C=C/c2ccccc2)c1)Nc1ccccc1OC(F)F | inconclusive: 29.1 µM [inhibitor, single point] | – |
| CCCc1nnc(NC(=O)CCC(=O)N2CCN(CCn3c(C)ccc3C)CC2)s1 | inconclusive: 14.6 µM [inhibitor, partial curve] | – |
| Cc1ccc(OCCCC(=O)N2CCOCC2)c(C)c1 | inactive | – |
| Cc1c(N=NC2=C(O)CC(C)(C)CC2=O)c(=O)n(-c2ccccc2)n1C | inconclusive: 29.1 µM [inhibitor, partial curve, poor fit] | – |
| Cc1ncc(/C=C2\C(=O)Nc3ccccc32)[nH]1 | inconclusive: 20.6 µM [inhibitor, single point] | – |
| O=C(Nc1ccc(Br)cn1)c1cccc(S(=O)(=O)N2CCCC2)c1 | inconclusive: 29.1 µM [inhibitor, single point] | – |
| COc1ccc(-c2[nH]ncc2CN2CCC(N3CCSCC3)CC2)c(F)c1 | inconclusive: 18.4 µM [inhibitor, single point] | – |
| Cc1c(CCC(=O)O)c(=O)oc2cc(OCc3cccc(Cl)c3)ccc12 | inactive | – |
| COc1ccc(-c2nc3c(C#N)c[nH]n3c2NC2CCCCC2)c(OC)c1 | inconclusive: 25.9 µM [inhibitor, single point] | – |
| Oc1cc(O)cc(O)c1 | inactive | – |

| SMILES | Potency | activity change, negative = growth inhibition |
| --- | --- | --- |
| C/C(NC(=O)c1ccccc1)=C1/C(=O)CC2C1C2(C)C (stereo not given) | inconclusive: 20.6 µM [inhibitor, partial curve, poor fit] | – |
| CC1(c2ccc3c(c2)OCO3)NC(=O)N(CC(=O)Nc2ccccc2[N+](=O)[O-])C1=O (stereo not given) | inactive | – |
| COc1cc(NC(=O)c2ccc(S(=O)(=O)N(C)c3ccccc3OC)cc2)cc(OC)c1 | active: 20.6 µM | – |
| COc1ccc(CCNC(=O)CCn2c(=O)c3cccn3c3ccc(F)cc32)c(OC)c1OC | active: 11.6 µM and active: 8.2 µM | – |
| Cc1ccc(OCc2nc3ccccc3n2CC(C)C)cc1 | active: 23.1 µM | – |
| Cc1cccc(NC(=O)c2ccc(S(=O)(=O)N3CCCCC3C)cc2)n1 (stereo not given) | inconclusive: 29.1 µM [inhibitor, single point] | – |
| COc1ccccc1-c1nnc(SCC(=O)Nc2c(Cl)cccc2Cl)o1 | active: 20.6 µM | – |
| Cn1c2c(c(=O)n(C)c1=O)CN(Cc1ccco1)CN2 | inactive | – |
| Cc1nn2c(NCc3ccccn3)c3c(nc2c1-c1ccccc1)CCC3 | active: 4.61 µM | – |
| COc1ccc(CCn2c(C)cc(C(=O)CN3C(=O)C(=O)N(Cc4ccco4)C3=O)c2C)cc1 | active: 9.2 µM | – |
| CC(C)CN1C(=O)C(=O)N(CC(=O)NCCCc2ccccc2)C1=O | inactive | – |
| CCc1nc2c(OCc3ccccc3)cccn2c1N(Cc1ccccc1)C(C)=O | inconclusive: 29.1 µM [inhibitor, single point] | – |
| CCCCN(CC)Cc1ccc(CNC(=O)Nc2ccc(OC)cc2OC)o1 | inconclusive: 14.6 µM [inhibitor, single point] | – |
| C[C@@H]1COC(=O)[C@@H](Cc2ccc(F)cc2)C/C=C\C[C@@H](CC(=O)NCCO)C(=O)N1 | inactive | – |
| O=C(CS(=O)c1ccc(F)cc1)N1CCOCC1 (stereo not given) | inactive | – |
| O=C(NNC(=S)NC(=O)c1cn(-c2ccccc2)nc1-c1ccccc1)c1ccncc1 | inconclusive: 16.4 µM [inhibitor, single point] | – |
| COc1ccccc1N1CCN(C(=O)c2nn(-c3ccccc3OC)c(=O)c3ccccc23)CC1 | inconclusive: 25.9 µM [inhibitor, single point] | – |
| O=S1(=O)CCC(NC(=S)N2CCOCC2)C1 (stereo not given) | inactive | – |
| COc1ccc2[nH]c(=O)c(CN(C(=O)c3cccnc3)c3ccc(C)cc3)cc2c1 | inconclusive: 10.3 µM [inhibitor, partial curve] | – |
| CC(=O)c1cccc(NC(=O)N2CCC(c3nnc(SCC(N)=O)n3C)CC2)c1 | inactive | – |
| CCCN(C(=O)CCl)C1=CCCCC1 | active: 13 µM | – |
| CC(C)(C)c1ccc(N2C(=O)Cc3c2nc(N)c(C#N)c3N)cc1 | inconclusive: 29.1 µM [inhibitor, single point] | – |
| Cc1cc(C(=O)CSc2nc(N)cc(N)n2)c(C)n1CCc1ccc(F)cc1 | inconclusive: 20.6 µM [inhibitor, single point] | – |
| COC(=O)c1cc(-c2ccccc2)n(CCN)c1C | inactive | – |
| Cc1ccccc1-n1nnnc1SCC(=O)c1c(N)n(C)c(=O)n(C)c1=O | inconclusive: 5.8 µM [inhibitor, single point] | – |
